# Test results reported in PubChem BioAssay AID485294 (National Center for Advancing Translational Sciences (NCATS), 2010).
# In all, about 370,000 compounds went through this assay and about 150 (0.041%) were called active. Inconclusive results, whose numbers are uncertain, are shown with a selection of clear calls. The call rests on the fitted dose curve; in most records, active means well fitted inhibition curve with a large enough effect; inconclusive means small, poorly fitted or top-dose-only effect; inactive means flat fitted curve, though single readings scatter. No potency is given beside an inconclusive call; the fits are too rough.
# Molecular target: Beta-lactamase (Escherichia coli (strain K12)) (UniProt P00811)
# Chain of UniProt P00811 (P00811 whole entry, looked up): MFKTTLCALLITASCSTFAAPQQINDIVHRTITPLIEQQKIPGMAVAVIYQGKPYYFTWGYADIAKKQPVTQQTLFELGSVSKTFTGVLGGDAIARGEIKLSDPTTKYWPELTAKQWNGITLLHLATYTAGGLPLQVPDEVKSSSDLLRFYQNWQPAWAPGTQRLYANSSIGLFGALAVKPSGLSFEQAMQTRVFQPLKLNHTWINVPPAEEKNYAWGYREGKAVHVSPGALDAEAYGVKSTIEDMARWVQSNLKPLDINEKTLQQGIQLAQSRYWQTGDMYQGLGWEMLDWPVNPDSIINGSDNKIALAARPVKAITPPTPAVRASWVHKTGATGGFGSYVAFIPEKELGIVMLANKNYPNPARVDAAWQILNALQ
# Test: qHTS Inhibitors of AmpC Beta-Lactamase (assay with detergent); further: nearly all actives have a fitted effect of over 25% in size;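 on activity change, negative = inhibition: 0% = no-compound wells and -100% = no-enzyme wells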
# Conditions: AmpC hydrolysis of nitrocefin, absorbance 480 nm, 0.01% Triton; activity change, negative = inhibition: at 114 µM (top of the series)
# In short: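 20 mM phosphate pH 7.0 + 0.01% (detergent screen) or 0.0001% Triton X-100; 5.3 nM AmpC reagent; cpd preinc 15 min RT; nitrocefin (800 uM stock) to start; A480 q20 s × 4 min; Activity was normalised to no-enzyme and no-compound control wells.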
# Potency means the concentration at half of the fitted maximal effect; tags describe the fitted curve by direction and shape.
SMILES,"activity change, negative = inhibition",Potency
COc1ccc(/C(C)=N/Nc2nncc3ccccc23)cc1,inactive: -6.02%,–
COC(=O)c1cnn(-c2ccc(C(=O)Nc3ccc(C(C)=O)cc3)cc2)c1N,inactive: -0.237%,–
Fc1ccccc1CSc1nc2ncc(Br)cc2[nH]1,–,"inconclusive [inhibitor, full curve, poor fit]"
NC1=NC[C@@H](Cc2ccc(O)cc2)N1CCCCC1CCCCC1,inactive: 3.03%,–
COC(=O)CCc1n[nH]c(=O)[nH]c1=O,–,"inconclusive [inhibitor, full curve]"
COc1ccccc1/C=N/NC(=O)c1ccc(=O)n(C)c1,–,"inconclusive [inhibitor, full curve, poor fit]"
CCc1c(C)nc2ncnn2c1Nc1ccc(C)c(C)c1,–,"inconclusive [inhibitor, full curve, poor fit]"
COc1ccc(CCNC(=O)C2(C)CCC(=O)N2CCC(C)C)cc1OC (centres undefined),–,"inconclusive [inhibitor, full curve, poor fit]"
Cc1nnc(SCC(=O)N2CCN(S(=O)(=O)c3ccc(Cl)cc3)CC2)n(N)c1=O,–,"inconclusive [inhibitor, full curve, poor fit]"
CC1CCCN(c2ccc(C(=O)NCC3CCCO3)cn2)C1 (centres undefined),inactive: -1.92%,–
O=C(c1ccco1)N1CCN(S(=O)(=O)c2ccc(C3CCCCC3)cc2)CC1,–,"inconclusive [inhibitor, full curve, poor fit]"
Cc1ccc(S(=O)(=O)N(C(=O)c2ccncc2)c2ccc(OC(=O)c3ccncc3)cc2)c(C)c1,–,"inconclusive [inhibitor, partial curve, poor fit]"
CC(C)CN1C(=O)c2ccc(C(=O)Nc3ccncc3)cc2C1=O,–,"inconclusive [inhibitor, partial curve]"
Cc1cccc(NC(=O)C23CCC(C)(C(=O)O2)C3(C)C)c1 (centres undefined),inactive: 2.96%,–
COc1ccc(CC(=O)NC(C)c2ccc3ccccc3c2)cc1 (centres undefined),–,"inconclusive [inhibitor, full curve]"
O=C(CCS(=O)(=O)Cc1ccccc1)Nc1nncs1,–,"inconclusive [inhibitor, full curve, poor fit]"
O=[N+]([O-])c1c(Nc2ccc(O)cc2)cc(N2CCOCC2)c2nonc12,–,"inconclusive [inhibitor, full curve, poor fit]"
Cc1ccc(CNC(=O)c2cncc(Br)c2)cc1,–,"inconclusive [inhibitor, full curve, poor fit]"
CCc1cccc(NS(=O)(=O)c2c(C)n[nH]c2C)c1,–,"inconclusive [inhibitor, partial curve, poor fit]"
O=C(c1ccco1)N1CCN(S(=O)(=O)c2ccc(S(=O)(=O)NC3CCCCC3)cc2)CC1,–,"inconclusive [inhibitor, full curve, poor fit]"
CCOc1ccc(CNC(=O)Cn2nc(C)c3nn(-c4ccc(Cl)cc4)c(C)c3c2=O)cc1OC,inactive: 18.4%,–
COc1ccc(-c2nn(CCC(=O)O)cc2CCC(=O)O)cc1,–,"inconclusive [inhibitor, full curve, poor fit]"
O=C(CSc1nc(N2CCCCC2)nc(N2CCCCC2)n1)N1CCc2ccccc21,–,"inconclusive [inhibitor, full curve, poor fit]"

SMILES,"activity change, negative = inhibition",Potency
COc1ccc(C(c2nnnn2C2CCCC2)N2CCC(C(N)=O)CC2)c(OC)c1 (centres undefined),–,"inconclusive [inhibitor, partial curve, poor fit]"
Cc1cccc(C(=O)N2c3ccccc3C(=O)OC2c2ccc3c(c2)OCO3)c1 (centres undefined),–,"inconclusive [inhibitor, partial curve]"
O=S(=O)(c1ccccc1)N1CCC(c2ccncc2)CC1,inactive: 3.8%,–
Cc1ccc(/C=N/n2c(=O)c(C(C)(C)C)nn3cnnc23)cc1,–,"inconclusive [inhibitor, full curve]"
O=C(CC1NCCc2ccccc21)Nc1ccccc1Cl (centres undefined),inactive: 2.39%,–
Cc1ccc(C)c(S(=O)(=O)N2CCC3(CC2)OCCN3S(=O)(=O)c2cccs2)c1,–,"inconclusive [inhibitor, partial curve, poor fit]"
CCN(CC)CC(=O)Nc1c(C)cccc1C,–,"inconclusive [inhibitor, full curve]"
Cc1ccc(CNc2ccc(-c3nc(-c4ccco4)no3)cc2[N+](=O)[O-])cc1,inactive: 9.74%,–
Cc1cc(=O)[nH]c(SCc2csc(-c3ccccc3)n2)n1,–,"inconclusive [inhibitor, partial curve, poor fit]"
N#CCCCSC1=C(C#N)C(c2ccccc2Cl)CC(=O)N1 (centres undefined),–,"inconclusive [inhibitor, partial curve, poor fit]"
Cc1cccc(NC(=O)Nc2ccc(C#N)cc2)n1,–,"inconclusive [inhibitor, full curve]"
CCc1cccc2cc3c(N)c(C(=O)Nc4ccc(S(=O)(=O)N5CCCC5)cc4)sc3nc12,–,"inconclusive [inhibitor, full curve, poor fit]"
COc1cc(C)ccc1OCc1cc(C(=O)N(C)CCCN2CCOCC2)no1,inactive: -13.7%,–
O=C(Nc1cc(F)ccc1F)C1COc2ccccc2C1 (centres undefined),inactive: 12.6%,–
COc1cccc(C(=O)NC(=S)Nc2ccc(Cl)c(C(=O)O)c2)c1,–,"inconclusive [inhibitor, full curve, poor fit]"
CNC(=O)N1CCN(C(=O)NC)CC1,–,"inconclusive [inhibitor, full curve]"
Cc1ccc(S(=O)(=O)N2CCC(C(=O)Nc3ccccc3N3CCCC3)CC2)cc1C,inactive: -7.1%,–
Cc1ccc2cc(CN(C)C(=O)C3CCCO3)c(=O)[nH]c2c1 (centres undefined),–,"inconclusive [inhibitor, partial curve, poor fit]"
CCc1c(C)c(C#N)c2nc3ccccc3n2c1NC,inactive: -9.86%,–
O=C(Nc1ccccn1)c1ccc(NC(=O)c2ccco2)cc1,–,"inconclusive [inhibitor, full curve, poor fit]"
Cc1ccc(-n2c3c(c(=O)[nH]c2=O)C(NC(=O)c2ccccc2F)(C(F)(F)F)C(=O)N3)cc1C (centres undefined),inactive: -2.45%,–
Cc1ccc(NC(=O)C2CCN(S(C)(=O)=O)CC2)c(C)c1,inactive: -6.51%,–
CN(C)S(=O)(=O)c1cc(NC(=O)CSc2nn(-c3ccc(Cl)cc3)c(=S)s2)ccc1Cl,–,"inconclusive [inhibitor, full curve, poor fit]"

SMILES,"activity change, negative = inhibition",Potency
CC1(C)CC(NC(=O)c2cccc3ccccc23)CC(C)(C)N1,–,"inconclusive [inhibitor, full curve]"
Cc1cc(NC(=O)c2cnn3c(C(F)(F)F)cc(-c4ccccc4)nc23)no1,–,"inconclusive [inhibitor, partial curve]"
COc1cccc(OC)c1-c1nn(-c2ncc(C(F)(F)F)cc2Cl)c(=O)o1,–,"inconclusive [inhibitor, partial curve]"
COc1cc(CNCCCN2CCOCC2)ccc1OCC(=O)NC(C)(C)C,inconclusive: -16% [inhibitor],–
Cc1nn(C(C)C(=O)NCCc2ccco2)c(=O)c2nn(-c3ccccc3)c(C)c12 (centres undefined),–,"inconclusive [inhibitor, full curve, poor fit]"
COc1cccc(/C=N/NC(=O)c2ccccc2N(Cc2ccccc2)S(=O)(=O)c2ccccc2)c1OC,–,"inconclusive [inhibitor, full curve]"
COc1ccc(Nc2cc(C)nc(-n3nc(C)cc3C)n2)cc1Cl,inactive: 1.28%,–
CC(C)Cc1cc(C(=O)N2CCCC(C(=O)c3cc(F)ccc3F)C2)n(C)n1 (centres undefined),–,"inconclusive [inhibitor, partial curve]"
COc1ccc(CCNC(=O)CCc2c(C)nc3c(c(C)nn3-c3ccc(C)cc3)c2C)c(OC)c1,inactive: -3.66%,–
C=CCN(CC=C)C(=S)NCCc1ccc(OC)c(OC)c1,–,"inconclusive [inhibitor, single point]"
COc1cc([N+](=O)[O-])ccc1NC(=O)NNC(=O)CCc1ccccc1,–,"inconclusive [inhibitor, full curve]"
COC(=O)C1=C(C)NC(=O)CC1c1ccc(C(=O)OC)cc1 (centres undefined),–,"inconclusive [inhibitor, full curve]"
O=C(CCN1C(=O)C2CCCCC2C1=O)Nc1ccc(Br)cc1F (centres undefined),inactive: 3.9%,–
Cc1ccccc1Cn1cc(NC(=O)c2cc3nc(-c4ccco4)cc(C(F)(F)F)n3n2)cn1,inactive: 2.28%,–
Cc1cccc(-c2oc3ccccc3c2C#CCCO)c1,–,"inconclusive [inhibitor, partial curve, poor fit]"
COc1ccc(C(=O)CNc2ccc3ccccc3c2)cc1,–,"inconclusive [inhibitor, single point]"
CCOc1ccc(-c2nc3c(C#N)c[nH]n3c2NC2CCCC2)cc1,inactive: 21.8%,–
CCN(CC)CCCNC(=O)c1cc2c(=O)n(C)c3ccccc3c2n1C,inactive: -11.6%,–
O=C(CNC(=O)c1ccncc1)Nc1ccc(F)c(F)c1,–,"inconclusive [inhibitor, partial curve]"
Cc1nn(-c2ccccc2)c(Cl)c1/C=C1/C(=N)N2N=C(C(C)C)SC2=NC1=O,–,"inconclusive [inhibitor, partial curve, poor fit]"
COc1ccc(OC)c(S(=O)(=O)NCCO)c1,–,"inconclusive [inhibitor, full curve]"
Cc1nc2ccc(S(=O)(=O)CCC(=O)Nc3ccc(F)cc3C)cc2s1,inactive: -13.1%,–
CCc1ccc(NC(=O)C2CCN(c3cc(C)nc4c(-c5ccc(Cl)cc5)c(C)nn34)CC2)cc1,inactive: 2.13%,–
